Assay results reported in the RNAGym collection of RNA variant scans (doi:10.1093/nar/gkz1192).
Read counts are not given, so values of variants with three or more changes are uncertain.

B1: CPEB3 Ribozyme (parent)
chain: UAACAGGGGGCCACAGCAGAAGCGUUCACGUCGCAGCCCCUGUCAGAUUCUGGUGAAUCUGCGAAUUCUGCUGUAUAUCUC

Variants of: B1
Assay: self-cleavage, relative activity (ratio to wild type); higher = more cleavage; in vitro, sequencing
Summary of the method: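 Barcoded CPEB3 ribozyme mutants, produced by rounds of error-prone PCR, self-cleaved while being transcribed with T7 RNA polymerase for 5 hours at 37°C and during a subsequent 15 min DNase I step before EDTA was added. Sequencing of template-switched cDNA on Illumina gave cleaved and total reads, and DNA sequencing assigned barcodes to variants. Each variant's relative activity is its cleaved/total read fraction divided by the unmutated ribozyme's fraction, averaged across three batches. A variant needed a minimum of 5 reads.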

Variant	self-cleavage
UAACAGGGGGCCACAGCAGAAGCGUUCACGUCGCAGCCCCUGUCGGAUCCGGGUGAACCAGCGAAUUCUGCUGUAUAUCUG	0.11
UAACAGGGGGCCACAGCAGAAGCGUUCACGUCGCAGCCCCUGUCGGAUUCAGGUGGAUCUGCGAACUCAGCUGUAUAUCCC	0.15
UAACAGGGGGCCACAGCAGAAGCGUUCACGUCGCAGCCCCUGGCAGAUUCUGGUGAAUCUGCGGCUACUGCUGUAAGUCUC	0.05
UAACAGGGGGCCACAGCAGAAGCGUUCACGUCGCAGCCCCUGGCAGAAUCCGGUGGAUCUGCGAAUUCUGCUGUAUAUCUC	0.18
UAACAGGGGGCCACAGCAGAAGCGUUCACGUCGCAGCCCCUGUCGCAUUCAGGCGAAUCUGCGAAUACUGCUGUAUAUCUC	0.15
UAACAGGGGGCCACAGCAGAAGCGUUCACGUCGCAGCCCCUGUCGGAUUCUGGUGGAUCUGCGAAUACUGCUGUAUAUCUC	0.36
UAACAGGGGGCCACAGCAGAAGCGUUCACGUCGCAGCCCCUGUCCGAUACUGGUGAAUCUGCGGAUUCUGCUGUAUAUCUC	0.37
UAACAGGGGGCCACAGCAGAAGCGUUCACGUCGCAGCCCCUGUCCGAUUCUGGUGAAUCUGCGAACUCCGCUGUAUAUCUC	0.16
UAACAGGGGGCCACAGCAGAAGCGUUCACGUCGCAGCCCCUGUCGGAUCCUGGUGAAUCAGCCAAUUCCGCUGUAUAUCUC	0.07
UAACAGGGGGCCACAGCAGAAGCGUUCACGUCGCAGCCCCUGGCGGAUUCUGGUGUAUCUGCGAAUUCUGCUGUAUAUCUC	0.1
UAACAGGGGGCCACAGCAGAAGCGUUCACGUCGCAGCCCCUGUCGGAUUCUGGUGAAUCUGCGAAUUCUGCUGUAUUUCCC	0.98
UAACAGGGGGCCACAGCAGAAGCGUUCACGUCGCAGCCCCUGUCGGAUUCUGAUGUAUCUGCGAAUUCUGCUGUAUAUCUC	0.21
UAACAGGGGGCCACAGCAGAAGCGUUCACGUCGCAGCCCCUGCCAGAUUCUGGUGAAUCUGCGAACUCUGCAGUAUAUCUC	0.14
UAACAGGGGGCCACAGCAGAAGCGUUCACGUCGCAGCCCCUGUCGGGUUCUGGUGAAUUUGCGAAUUCUGCUGUAUAUCUC	0.21
UAACAGGGGGCCACAGCAGAAGCGUUCACGUCGCAGCCCCUGUGAGAUUCUGGCGAGUCUGCGAAUUCUGCUGUAUAUCUC	0.15
UAACAGGGGGCCACAGCAGAAGCGUUCACGUCGCAGCCCCUGUCGGAUUCUGGUGAAUCUGCGAAUUCUGCUGUGUAGCUC	1.16
UAACAGGGGGCCACAGCAGAAGCGUUCACGUCGCAGCCCCUGUCGGACUCUGGUGAGUCUGCGAAUUCUGCUGUAUUUCUC	0.72

Variant	self-cleavage
UAACAGGGGGCCACAGCAGAAGCGUUCACGUCGCAGCCCCUGUCGGGUCCCGGUGAAUCUGCGAAUUCUGCUGUAUAUCCC	0.18
UAACAGGGGGCCACAGCAGAAGCGUUCACGUCGCAGCCCCUGUCGGAUUCUGGUGAGUCUGCGAAUUCUGCUGCAUAUCUC	0.86
UAACAGGGGGCCACAGCAGAAGCGUUCACGUCGCAGCCCCUGUCGGAUUCUGGUGGAUCUGAGAAUUCUGCAGUAUAUCUC	0.38
UAACAGGGGGCCACAGCAGAAGCGUUCACGUCGCAGCCCCUGUCGGAAUCUGGUGAAUCCGCGAGUUCUGCUGUAUAUCUC	0.34
UAACAGGGGGCCACAGCAGAAGCGUUCACGUCGCAGCCCCUGUCGGAUUCUGGUGGAUCUGCGAAUUCUGCCGUAUAUCUC	0.69
UAACAGGGGGCCACAGCAGAAGCGUUCACGUCGCAGCCCCUGUCGGAUUCUGGUGUAUCUGCGAAUUCUGCUGUGUAUCUC	0.37
UAACAGGGGGCCACAGCAGAAGCGUUCACGUCGCAGCCCCUGUCGUAUUCUGGUGUAUCUGCGAAUUCUGCCGUAUAUCUC	0.07
UAACAGGGGGCCACAGCAGAAGCGUUCACGUCGCAGCCCCUGUCCGAUUCCGGUGAAUCUGCGAAUUCUGCCGUAUAUCUC	0.22
UAACAGGGGGCCACAGCAGAAGCGUUCACGUCGCAGCCCCUGUCGGAUUCUGGUGAAUCUGCGAAUUAUGCUGCAUAUCUC	0.33
UAACAGGGGGCCACAGCAGAAGCGUUCACGUCGCAGCCCCUGUCGGAUCCUGGUGAAUCUGCGUAUUCUGGUGUAUAUCUC	0.07
UAACAGGGGGCCACAGCAGAAGCGUUCACGUCGCAGCCCCUGGCAGGUUCUGGUGAAACUGCGAAUUCUGCUGUAUAUCUC	0.48
UAACAGGGGGCCACAGCAGAAGCGUUCACGUCGCAGCCCCUGUUAGAUACUGGUGAGACUGCGAAUCCUGCUGUAUAUCUC	0.1
UAACAGGGGGCCACAGCAGAAGCGUUCACGUCGCAGCCCCUGUAAGAUUCCGGUGAAUCUGCGAAUUCUGCUGUAUACCUC	0.15
UAACAGGGGGCCACAGCAGAAGCGUUCACGUCGCAGCCCCUGCCAGAUUCUGGUGAAUCCGCGAAUUCUGCCGUAUACCUC	0.13
UAACAGGGGGCCACAGCAGAAGCGUUCACGUCGCAGCCCCUGUCCGUUUCGGGUGAAUCUGCGAAUUCUGCUGUAUAUCUC	0.15
UAACAGGGGGCCACAGCAGAAGCGUUCACGUCGCAGCCCCUGUUAGACGCUGGUGGAUCUGCGAAUUCUGCUGAAUAUCUC	0.05
UAACAGGGGGCCACAGCAGAAGCGUUCACGUCGCAGCCCCUGUCGGCUUCUGGUGAAUCUGCGAAUUCCGCUGAAUAUCUC	0.21
